# “And” between values parts separate entries of the source, which are not always exact repeats. Equal entries are not always repeated. The campaign covered roughly 48,000 compounds. About 1,200 (2.5%) were called active. About 2% were inconclusive and are not listed.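 How the source made its calls: active means activation of at least 60% and not above a set upper limit (about 1 call in 100 departs from these limits); inconclusive means activation of 40% to 60%, or above that upper limit; inactive means activation under 40%.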 Some of the results follow.
# Target: Probable G-protein coupled receptor 32 (Homo sapiens) (UniProt O75388)
# Test: qHTS for Agonists of Human Resolvin D1 Receptor DRV1; further: 0% is about no effect
# Settings: CHO-K1 GPR32 beta-arrestin PathHunter luminescence, 90 min; at 76.9 µM; active compounds read high; zero percent set by DMSO-only wells
# How it was run: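 Using DMSO wells as EC0, agonist-induced signal was taken as chemiluminescence from beta-Gal reconstituted upon beta-arrestin recruitment to GPR32 in CHO-K1 cells after 90 min compound treatment.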
# Chain of UniProt O75388 (O75388 whole entry, looked up): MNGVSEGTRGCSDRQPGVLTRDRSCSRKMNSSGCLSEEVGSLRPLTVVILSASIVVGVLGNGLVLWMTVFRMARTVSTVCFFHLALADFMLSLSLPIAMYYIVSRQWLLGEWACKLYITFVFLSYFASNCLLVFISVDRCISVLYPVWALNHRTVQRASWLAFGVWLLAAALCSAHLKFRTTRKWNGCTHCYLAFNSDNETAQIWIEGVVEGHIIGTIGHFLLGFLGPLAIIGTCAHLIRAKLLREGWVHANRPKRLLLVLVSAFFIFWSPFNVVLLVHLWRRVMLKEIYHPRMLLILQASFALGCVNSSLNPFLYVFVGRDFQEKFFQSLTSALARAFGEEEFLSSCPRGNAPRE
row,SMILES,activation
1,CCOC(=O)Cn1cccc1-c1nc(-c2ccc(OC)cc2)c(-c2ccc(OC)cc2)s1,inactive: 23.1%
2,COc1ccc(CC(=O)NCc2ccc3c(c2)CCN3C(=O)c2ccc(C)cc2)cc1OC,inactive: -24.6%
3,O=C(Cn1ncc2c(=O)oc3ccccc3c21)NCc1ccccc1Cl,inactive: 4.21%
4,O=C(Cn1ncc2c3ccccc3n(Cc3ccccc3F)c2c1=O)NCCc1ccc(Cl)cc1,inactive: -9.89%
5,CCOC(=O)c1c(C)[nH]c(C)c1S(=O)(=O)N1CCCC(C(=O)Nc2ccc(OC)c(Cl)c2)C1 (centres undefined),inactive: -2.49%
6,COc1cccc(CNC(=O)CSc2c3c(nc4ccc(Cl)cc24)CCCC3)c1OC,inactive: -20.9%
7,O=C(Cn1cnc(S(=O)(=O)N2CCCC2)c1)Nc1ccc(OC(F)(F)F)cc1,inactive: 14.9%
8,CCc1ccc(NC(=O)c2cc3sc(Cl)cc3n2C)cc1,inactive: 42.1%
9,CC1=C(C(=O)Nc2ccc(C)cc2C)C(c2ccc(Cl)cc2)n2nc(C(=O)OC(C)C)nc2N1 (centres undefined),inactive: -0.364%
10,COc1ccc(OC)c(NC(=O)Cn2cnc3c(oc4ccccc43)c2=O)c1,inactive: -19%
11,COc1ccc(CN2COc3ccc4c(-c5ccccc5)cc(=O)oc4c3C2)cc1,inactive: -15.2%
12,Cc1cccc(N2CCN(C(=O)C3CCN(S(=O)(=O)c4cccs4)CC3)CC2)c1C,inactive: -11.7%
13,Cc1ccccc1Nc1nnc(-c2ccc(C)c(S(=O)(=O)N3CCOCC3)c2)c2ccccc12,inactive: 0.024%
14,O=S(=O)(c1ccc2[nH]c3c(c2c1)CCCCC3)N1CCN(c2ccccc2)CC1,inactive: 9.06%
15,COc1cccc(CNC(=O)c2cc(-c3cccc(OC)c3)n[nH]2)c1,inactive: -8.46%
16,O=C(CCn1cnc2ccccc2c1=O)NCc1ccccc1,inactive: -9.12%
17,Cc1ccc(N2CCN(C(=O)CCc3c(C)nc4c(c3C)c(=O)n(C)c(=O)n4C)CC2)c(C)c1,inactive: 3.52%
18,CCOc1ccc(NS(=O)(=O)c2ccc(N)cc2)nn1,inactive: -7.53%
19,CC(=O)C1=C(c2ccc(Cl)c(Cl)c2)N(C(C)=O)n2c(C)nnc2S1,inactive: -48%
20,COc1cc(OC)c(N(C)C(=O)c2nn(C)c3c2CSc2ccccc2-3)cc1Cl,inactive: -11.2%
21,CN1C(=O)Cc2cc(S(=O)(=O)CCC(=O)Nc3ccccc3)ccc21,inactive: -13%
22,CCN(CC)CCCNC(=O)Cn1nc(N2CCN(c3ccccc3OC)CC2)ccc1=O,inactive: -0.716%
23,Cc1cccc(C)c1NC(=O)c1oc2c(c1C)-c1nn(Cc3ccccc3)cc1CC2,inactive: -10.3%
24,CCCSCCCNC(=O)CN1C(=O)COc2ccc(S(=O)(=O)N3CCC(C)CC3)cc21,inactive: -23.6%
25,CCc1ccc(S(=O)(=O)Nc2ccc(-c3ccc(N4CCCCCC4)nn3)cc2)cc1,inactive: 13.8%
26,Cn1c(=O)[nH]c2ncn(C)c2c1=O,inactive: 3.72%
27,Cc1nc2c(C(=O)N(C)Cc3ccccc3)c[nH]n2c(=O)c1Cc1ccc(Cl)cc1,inactive: -15.2%

row,SMILES,activation
1,Cc1ccc(Cl)cc1N1CCN(C(=O)c2ccc3c(c2)N(Cc2ccccc2F)C(=O)c2ccccc2S3(=O)=O)CC1,inactive: 7.91%
2,O=C(NCC(c1ccccc1)c1ccccc1)c1nn(-c2ccccc2Cl)nc1CO,inactive: -21.8%
3,CCOc1ccccc1NC(=O)c1sc(-n2nc(C)c(CCC(C)C)c2C)nc1C,inactive: -7.09%
4,COc1ccc(Cl)cc1NC(=O)CN(C)S(=O)(=O)c1ccc(Br)s1,inactive: -14.9%
5,CCCCOc1ccc(S(=O)(=O)N2CCN(c3ccccc3OCC)CC2)cc1,inactive: -4.1%
6,Cc1cc2c(c3oc(=O)c4ccccc4c13)CN(Cc1ccc(F)cc1)CO2,inactive: -18%
7,COCCCNC(=O)CCC(=O)N1Cc2ccccc2Oc2ncccc21,inactive: 2.88%
8,Cc1cc(C)c2oc(-c3cccc(NC(=O)c4ccco4)c3)nc2c1,inactive: 2.29%
9,CCC1CCCCN1CCCNC(=O)CN1C(=O)CSc2ccc(S(=O)(=O)N3CCC(C)CC3)cc21 (centres undefined),inactive: -28.7%
10,C#CCN[C@@H]1CCc2ccccc21,inactive: -15.4%
11,O=C(Nc1cccc(Cl)c1)Nc1ccccc1OCc1cc(=O)n2ccccc2n1,inactive: -16.8%
12,COc1ccccc1N1CCN(C(=O)c2sc3nc4n(c(=O)c3c2C)CCC4)CC1,inactive: 0.387%
13,CCCCN(CC)CCNC(=O)c1cn(CCOC)c(=O)c2c1c1ccccc1n2C,inactive: -8.88%
14,CCC(=O)N1CCc2cc(S(=O)(=O)CCC(=O)Nc3ccc(Cl)c(C(F)(F)F)c3)ccc21,active: 88.1%
15,CCOc1ccc(C(=O)c2cn(Cc3ccccc3OC)c3cc4c(cc3c2=O)OCCO4)cc1,inactive: 2.06%
16,Cc1ccc(NC(=O)Cn2c(=O)oc3ccccc32)cc1Cl,inactive: 8.98%
17,COc1ccccc1CN1COc2ccc3c(C)cc(=O)oc3c2C1,inactive: -34.4%
18,O=C(NC1CC(=O)N(c2cccc(F)c2)C1)c1ccc(S(=O)(=O)N2CCOCC2)cc1 (centres undefined),inactive: 6.74%
19,CCOC(=O)c1ccc(NC(=O)CSc2ccc(-c3sc(C)nc3C)nn2)cc1,inactive: -12.5%
20,CCOC(=O)c1ccc(NC(=O)c2cn(-c3ccccc3)nc2-c2ccc(Br)cc2)cc1,inactive: 21.5%
21,COc1ccc(C(=O)c2oc3ccccc3c2NC(=O)c2ccc(F)cc2)cc1,inactive: -3.99%
22,O=C(c1cn(CCOc2ccccc2F)c2ccccc12)C1CCCCC1,inactive: -11.6%
23,COc1ccc(Cn2ccc3nc(C)c(C(=O)N4CCN(c5ccccc5)CC4)cc3c2=O)cc1,inactive: -6.18%
24,CN/C(=C\[N+](=O)[O-])NCCSCc1ccc(CN(C)C)o1,inactive: 11.9% and inactive: -2.51%
25,COc1ccc(NC(=O)CSc2oc(-c3cccs3)nc2S(=O)(=O)c2ccc(Br)cc2)c(OC)c1,inactive: 8.09%
26,CCc1nonc1NC(=O)c1oc2cc(C)c(Cl)cc2c1C,inactive: -7.54%
27,Cc1cccc(Cn2cc(C(=O)c3ccccc3)c(=O)c3cc4c(cc32)OCO4)c1,inactive: -3.07%

# Source: PubChem BioAssay AID1346428 (National Center for Advancing Translational Sciences (NCATS), 2018)
